The whole screen tested about 94,000 compounds, of which about 6,200 (6.6%) were called active. The inconclusive results got no clear call from the source; some entries with a clear call stand among them for comparison. Calls follow the shape of the dose curve; as a rule, active = well fitted inhibition curve with a large enough effect; inconclusive = small, poorly fitted or top-dose-only effect; inactive = flat fitted curve, though single readings scatter. Where the call is inconclusive, the potency comes from a doubtful curve fit.
Experiment: Cytotoxic Profiling in HEK 293 Cell Line of Diverse Libraries Using Quantitative High-Throughput Screening; also: nearly all actives have a fitted effect of over 60% in size
Settings: HEK 293 viability, ATP luminescence (CellTiter-Glo), 48-72 h; series mostly up to 115 µM
How it was run: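 ATP-coupled CellTiter-Glo luminescence served as viability read-out, recorded 10 min after reagent addition at room temperature. HEK 293 cells, 250 cells/well, had been incubated with pintool-transferred compound for 48 or 72 hr at 37 degree Celsius.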
Potency is read from the fitted curve at half-maximal effect; tags tell the direction and shape of the fitted curve.

Structure (SMILES)	Potency
CSc1cccc(NC(=O)CCn2ccn3nc4c(c3c2=O)CCCC4)c1	inconclusive: 15.8 µM [inhibitor, full curve, poor fit]
CN1CCN(c2nc3c(c(=O)[nH]2)CCN(Cc2ccc(C(F)(F)F)cc2)CC3)CC1	inactive
OCC1(CCCc2ccccc2)CCN(Cc2cccn2-c2nccs2)CC1	inconclusive: 39.8 µM [inhibitor, partial curve, poor fit]
O=C(NCCc1ccc(Cl)cc1)C1CCc2nnc(C3CCN([S+](=O)([O-])c4ccccc4Cl)CC3)n21 (stereo not given)	inactive
O=C(NCc1ccc(F)cc1)Nc1cccc(-c2ccc(N3CCOCC3)nn2)c1	inconclusive: 50.1 µM [inhibitor, partial curve, poor fit]
COc1ccccc1C(=O)N[C@@H]1CN(Cc2ccncc2)C[C@H]1CN(C)C	inconclusive: 31.6 µM [inhibitor, partial curve, poor fit]
COc1cccc(N2C(=O)NC(=NC3CCCC3)C23CCCN([S+](=O)([O-])c2cccc(C(F)(F)F)c2)C3)c1 (stereo not given)	inconclusive: 79.4 µM [inhibitor, partial curve, poor fit]
CCN(CC)C(=O)c1cc2c(s1)CCC(C(=O)NCc1c(C)nn(C)c1C)C2 (stereo not given)	inconclusive: 35.5 µM [inhibitor, full curve, poor fit]
NCCc1cccc(CN2CCC(OCc3ccccc3)CC2)c1	inconclusive: 50.1 µM [inhibitor, partial curve, poor fit]
Cc1ccc(CN2C[C@@H]3C[C@H]2C(=O)N(CC2CC2)c2ccccc2O3)cc1	active: 100 µM
Cc1ccc(C#N)c(NCc2cccnc2Oc2cccc(C(F)(F)F)c2)n1	inconclusive: 50.1 µM [inhibitor, partial curve, poor fit]
O=C1NC(=NC2CCCCC2)C2(CCCN(Cc3ccccc3)C2)N1c1cc(F)cc(F)c1 (stereo not given)	inconclusive: 50.1 µM [inhibitor, partial curve, poor fit]
COc1ccc(C2(C(=O)NCCc3ncc(C)n3Cc3ccc(F)cc3)CC2)cc1	inconclusive: 50.1 µM [inhibitor, partial curve, poor fit]
O=C1CC2(CCN(Cc3ccc(C(F)(F)F)cc3)CC2)Oc2ccccc21	active: 25.1 µM
COc1ccc(NC(=O)Cn2nc3n(c2=O)CCCC3)cc1Cl	inconclusive: 39.8 µM [inhibitor, partial curve, poor fit]
COc1cccc(CNC(=O)[C@@]23CCCC[C@H]2N(CCc2ccccc2)C(=O)CC3)c1	inconclusive: 56.2 µM [inhibitor, partial curve, poor fit]
COCC1CN(C)CC12CCN(S(=O)(=O)c1ccc3c(c1)CCC3)CC2 (stereo not given)	inconclusive: 56.2 µM [inhibitor, partial curve, poor fit]
COc1ccc(N2CC(C(=O)NCc3ccc(C(F)(F)F)cc3)NC2=O)cc1 (stereo not given)	inconclusive: 89.1 µM [inhibitor, single point]
OCC1(CC2CC2)CCCN(Cc2ccccc2OC(F)F)C1 (stereo not given)	inconclusive: 56.2 µM [inhibitor, partial curve, poor fit]
Cc1nnc2n1CCC(NC(=O)CCCc1nc3ccccc3s1)CC2 (stereo not given)	inactive

Structure (SMILES)	Potency
COc1cccc(-c2ccc(C(=O)N3CCC(NC(=O)c4ccccc4C)CC3)cc2)c1	inconclusive: 39.8 µM [inhibitor, partial curve, poor fit]
O=C1NC2(CCCN(CC3CC3)C2)Oc2ccccc21 (stereo not given)	inactive
Cc1ccc(Cn2c(C3CCN(C(=O)c4ccc(C)c(F)c4)CC3)n[nH]c2=O)cc1	inconclusive: 89.1 µM [inhibitor, single point]
COc1cccc(-c2ccc(N3CCCCCC3)nn2)c1OC	inconclusive: 31.6 µM [inhibitor, full curve]
COCC1CN(C)CC12CCN(C(=O)CCc1ccc(OC)cc1)CC2 (stereo not given)	inconclusive: 89.1 µM [inhibitor, single point]
Cc1cc(C)c(CNC(=O)c2cc(-c3cccnc3)cc3c2OCCN3C)c(=O)[nH]1	inconclusive: 89.1 µM [inhibitor, partial curve, poor fit]
CN1c2cc(C(=O)Nc3ccc(F)cc3)ccc2C(=O)N2CCCCCC21 (stereo not given)	inconclusive: 50.1 µM [inhibitor, partial curve, poor fit]
CCCN(C)C(=O)c1cc(-c2ccncc2)cn1Cc1ccccc1C	inconclusive: 50.1 µM [inhibitor, partial curve, poor fit]
CC(C)Cc1cnc(-c2ccccc2)[nH]1	active: 100 µM
CCOC(=O)[C@@H]1CN([S+](=O)([O-])c2ccccc2)[C@H]2c3ccccc3O[C@@H]12	inconclusive: 89.1 µM [inhibitor, single point]
c1cnn(-c2ccc(-c3n[nH]c(C4CCOCC4)n3)cc2)c1	inactive
COc1cccc(C(=O)NCCNC(=O)c2ccc(-c3cncnc3)cc2)c1	inconclusive: 100 µM [inhibitor, single point]
N#Cc1ccccc1CN1CCCCCCNC(=O)[C@@H]2CCC[C@@H]21	inconclusive: 89.1 µM [inhibitor, single point]
CCc1cccc(NC(=O)Cn2c(N3CCc4ccccc4C3)nc(C)cc2=O)c1	inconclusive: 39.8 µM [inhibitor, partial curve, poor fit]
C[S+](=O)([O-])NC1CC2(CCN(C(=O)c3ccccc3)CC2)c2ccccc21 (stereo not given)	inactive
Cc1nc(N2CCCCC2)ncc1C(=O)N[C@H]1[C@H]2CCO[C@H]2[C@@H]1N(C)C	inactive
CCNC(=O)N1CCC(c2noc(COCCOC)n2)CC1	inactive
COc1ccc(-c2noc(-c3cccn3CC(=O)Nc3ccccc3F)n2)cc1F	inactive
CN1Cc2ccc(NCc3ccccc3)nc2C(C)(C(=O)NCc2ccc3c(c2)OCO3)C1 (stereo not given)	inconclusive: 50.1 µM [inhibitor, partial curve, poor fit]
COc1ccc(C(=O)N(C)Cc2ccccc2C(F)(F)F)cc1	inconclusive: 126 µM [inhibitor, partial curve, poor fit]
